Test results published in US10889573B2, “Anthelmintic quinoline-3-carboxamide derivatives” (Bayer Animal Health GMBH, priority 2016, dated 2021).
Read-outs that look alike come from different tables or passages of the source. Some entries share one result that the patent states for a list of compounds. At least one structure is not confirmed: it was looked up by name or label, or the drawing left a doubt.

Experiments:
[1] = tested on: Nippostrongylus brasiliensis; assay: In vitro assay 2: Nippostrongylus brasiliensis (NIPOBR), acetylcholine esterase readout
Procedure, shortened: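 Readout was acetylcholine esterase activity released into the medium, compared with negative control, after exposing adult worms to compounds at final 10 ppm (10 μg/ml) or 1 ppm (1 μg/ml). Worms were first washed in antibiotic/amphotericin B-containing saline; compounds were dissolved in DMSO.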

Haemonchus contortus = details: after 5 days
Cooperia curticei = details: after 5 days

SMILES | activity (reduction of AChE compared to negative control) ([1]; 1 μg/ml) | activity (reduction of AChE compared to negative control) ([1]; 10 μg/ml) | activity (larval mortality) (Haemonchus contortus; 4 ppm) [%] | activity (larval mortality) (Haemonchus contortus; 20 ppm) [%] | activity (larval mortality) (Cooperia curticei; 4 ppm) [%] | activity (larval mortality) (Cooperia curticei; 20 ppm) [%]
O=C(N[C@H]1CCOc2ccccc21)c1cnc2c(-c3cc(Cl)cc(Cl)c3)cccc2c1NCCO [Example 74] | higher than 80% | higher than 80% | 80 | 90 |  | 
O=C(N[C@H]1CCOc2ccccc21)c1cnc2c(-c3cc(Cl)cc(Cl)c3)cccc2c1Nc1ccncc1 [Example 136] | higher than 80% | higher than 80% |  | 90 |  | 
CN(CCO)c1c(C(=O)N[C@H]2CCOc3ccccc32)cnc2c(-c3cc(Cl)cc(Cl)c3)cccc12 [Example 138] | higher than 80% | higher than 80% |  | 80 |  | 
COc1c(-c2cccc3c(N4CCOCC4)c(C(=O)N[C@H]4CCOc5ccccc54)cnc23)ccc(F)c1F [Example 232] | higher than 80% |  | 80 |  |  | 
CON(C)c1c(C(=O)N[C@H]2CCOc3ccccc32)cnc2c(-c3cccc(Cl)c3Cl)cccc12 [Example 249] | higher than 80% |  |  | 90 |  | 
CNc1cccc(-c2cccc3c(N(C)C)c(C(=O)N[C@H]4CCOc5ccccc54)cnc23)c1 [Example 312] |  |  |  | 100 |  | 
O=C(N[C@H]1CCOc2ccccc21)c1cnc2c(-c3cc(Cl)cc(Cl)c3)cccc2c1N1CC[C@H](CO)C1 [Example 318] | higher than 80% |  |  |  | 80 | 80
CN(CCN1CCCC1=O)c1c(C(=O)N[C@H]2CCOc3ccccc32)cnc2c(-c3cc(Cl)cc(Cl)c3)cccc12 [Example 328] | higher than 80% |  |  |  |  | 80
CCSc1c(C(=O)N[C@H]2CCOc3ccccc32)cnc2c(-c3cc(Cl)cc(Cl)c3)cccc12 [Example 367] | higher than 80% |  |  |  |  | 80
CN(C)c1c(C(=O)N[C@H]2CCOc3ccccc32)cnc2c(-c3ccncc3Cl)cccc12 [Example 382] | higher than 80% |  |  |  |  | 90
Cc1cc(-c2cccc3c(N(C)C)c(C(=O)N[C@H]4CCOc5ccccc54)cnc23)c(C)s1 [Example 388] | higher than 80% |  |  | 80 |  | 
CN(C)c1c(C(=O)N[C@H]2CCOc3ccccc32)cnc2c(-c3c(F)cncc3F)cccc12 [Example 403] | higher than 80% |  | 80 |  |  | 
O=C(N[C@H]1CCOc2ccccc21)c1cnc2c(-c3cc(Cl)cc(Cl)c3)cccc2c1C1CCC1 [Example 404] | higher than 80% |  |  |  |  | 80
CC(C)c1c(C(=O)N[C@H]2CCOc3ccccc32)cnc2c(-c3cccc(Cl)c3)cccc12 [Example 406] | higher than 80% |  |  |  | 80 | 90
CC(C)c1c(C(=O)N[C@H]2CCOc3ccccc32)cnc2c(-c3cccc(Cl)c3F)cccc12 [Example 409] | higher than 80% |  |  |  | 80 | 80
CC(C)c1c(C(=O)N[C@H]2CCOc3ccccc32)cnc2c(-c3cc(F)ccc3Cl)cccc12 [Example 418] | higher than 80% |  |  |  |  | 80

SMILES | activity (reduction of AChE compared to negative control) ([1]; 1 μg/ml) | activity (reduction of AChE compared to negative control) ([1]; 10 μg/ml) | activity (larval mortality) (Haemonchus contortus; 4 ppm) [%] | activity (larval mortality) (Haemonchus contortus; 20 ppm) [%] | activity (larval mortality) (Cooperia curticei; 4 ppm) [%] | activity (larval mortality) (Cooperia curticei; 20 ppm) [%]
NCCc1c(C(=O)N[C@H]2CCOc3ccccc32)cnc2c(-c3cc(Cl)cc(Cl)c3)cccc12 [Example 424] | higher than 80% |  |  |  |  | 80
CC(C)c1c(C(=O)N[C@H]2CCOc3ccccc32)cnc2c(-c3cc(Cl)cc(C(F)(F)F)c3)cccc12 [Example 431] | higher than 80% |  |  |  | 100 | 100
CN(C)c1c(C(=O)N[C@H]2CCOc3ccccc32)cnc2c(-c3cc(F)ccc3C(F)(F)F)cccc12 [Example 434] | higher than 80% |  |  | 80 |  | 
Cc1ccc(F)cc1-c1cccc2c(N(C)C)c(C(=O)N[C@H]3CCOc4ccccc43)cnc12 [Example 436] | higher than 80% |  | 90 |  |  | 
O=C(N[C@H]1CCOc2ccccc21)c1cnc2c(-c3cc(Cl)cc(Cl)c3)cccc2c1-c1cn[nH]c1 [Example 454] | higher than 80% |  |  |  |  | 100
O=C(N[C@H]1CCOc2ccccc21)c1cnc2c(-c3cc(Cl)ccc3Cl)cccc2c1N1CCOCC1 [Example 462] | higher than 80% |  |  |  | 90 | 90
Cc1ccc(Cl)c(-c2cccc3c(N4CCOCC4)c(C(=O)N[C@H]4CCOc5ccccc54)cnc23)c1 [Example 465] | higher than 80% |  |  |  | 80 | 90
Cc1ccc(F)c(-c2cccc3c(N4CCOCC4)c(C(=O)N[C@H]4CCOc5ccccc54)cnc23)c1 [Example 467] | higher than 80% |  |  |  | 80 | 90
Cc1ccc(Cl)c(-c2cccc3c(N(C)C)c(C(=O)N[C@H]4CCOc5ccccc54)cnc23)c1 [Example 470] | higher than 80% |  | 80 |  |  | 
O=C(N[C@H]1CCCc2ccccc21)c1cnc2c(-c3cccc(Cl)c3Cl)c(F)ccc2c1N1CCOCC1 [Example 492] | higher than 80% |  |  |  |  | 80
O=C(N[C@H]1CCOc2ccccc21)c1cnc2c(-c3cc(O)cc(Cl)c3Cl)cccc2c1N1CCOCC1 [Example 495] | higher than 80% |  |  |  |  | 80
CCc1cc(CC)c(Cl)c(-c2cccc3c(N4CCOCC4)c(C(=O)N[C@H]4CCOc5ccccc54)cnc23)c1 [Example 583] | higher than 80% |  |  |  | 80 | 80
Cc1cc(C(C)(C)C)cc(-c2cccc3c(N(C)C)c(C(=O)N[C@H]4CCOc5ccccc54)cnc23)c1Cl [Example 601] | higher than 80% |  |  |  | 90 | 90
Cc1cc(C(C)(C)C)cc(-c2cccc3c(N4CCOCC4)c(C(=O)N[C@H]4CCOc5ccccc54)cnc23)c1Cl [Example 607] | higher than 80% |  |  |  | 100 | 100
CN(C)c1c(C(=O)N[C@H]2CCOc3ccccc32)cnc2c(-c3cc(Cl)cc(Cl)c3)c(OC(F)(F)F)ccc12 [Example 614] | higher than 80% | higher than 80% |  |  | 80 | 80
